About 60 (0.1%) of roughly 46,000 compounds were called active. About 3% were inconclusive and are not listed. The call rests on the fitted dose curve; in most records, active means well fitted inhibition curve with a large enough effect; inconclusive means small, poorly fitted or top-dose-only effect; inactive means no such curve, though single readings can be large or run the other way. The list shows a part of the results.
Assay: Primary qHTS assay for Inhibitors of ovarian cancer metastasis using an organotypic tumor microenvironment (TME) model. Further: nearly all actives have a fitted effect of over 65% in size.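 On activity change, negative = inhibition: plate controls were DMSO wells for no effect and tomatine positive control wells for full effect.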
Conditions: SKOV3ip1-GFP adhesion/invasion on 3D omental model, fluorescence; series mostly up to 45.8 µM; activity change, negative = inhibition: at the top concentration
How it was run: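 Adhesion/invasion was scored as fixed GFP-labeled SKOV3ip1 cell counts (488/509 nm), normalized to DMSO and tomatine controls. Cancer cells in serum-free medium, with four compound doses (0.36-46 umol/L), sat 2 hr at RT then 16 hr at 37 C on a 48 hr fibroblast/mesothelial/ECM culture.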

outcome, inactive:
N#Cc1ccc(NC(=O)c2cc(-c3cccc(Cl)c3)on2)cc1
COc1ccc(CCNc2nc(SCc3ccc(F)cc3)nc3ccccc23)cc1OC
CC1=C(c2ccc(C)c(C)c2)S(=O)(=O)N=C1N1CCC(C(=O)Nc2ccc(Cl)cc2)CC1
Cc1cc(=O)[nH]c2nnc(SCC(=O)Nc3ccc(F)cc3F)n12
O=C(Nc1cccc(-c2nc3ccccc3[nH]2)c1)c1ccccc1F
COc1ccc(NC(=O)c2cc(S(=O)(=O)N3CCCCC3)cn2C)cc1Cl
CCOc1ccccc1NC(=O)CN1C(=O)COc2ccc(S(=O)(=O)Nc3ccccc3)cc21
CCCCNC(=O)Cn1ncc2c(C)n(Cc3cccc(Cl)c3)c(C)c2c1=O
O=C(NCc1cccs1)c1nn(-c2ccccc2F)nc1CO
CCOC(=O)c1c(C)[nH]c(C)c1S(=O)(=O)N1CCCC(C(=O)Nc2ccc(C)c(N(C)C)c2)C1 (stereo not drawn)
COC(=O)c1ccccc1NC(=O)C1(c2cccs2)CCOCC1
O=C(CSCc1ccccc1Cl)NCc1ccc(Cl)c(Cl)c1
Cc1ccc(C)c(Cn2c3ccccc3c3cnn(CC(=O)NCC(C)c4ccccc4)c(=O)c32)c1 (stereo not drawn)
COc1cccc(CNC(=O)CN2C(=O)N(c3c(C)cccc3C)S(=O)(=O)c3ccccc32)c1OC
Cc1cccc(C)c1NC(=O)CCS(=O)(=O)c1ccc2c(c1)CC(C)N2C(=O)C1CC1 (stereo not drawn)
CCOc1ccc(NC(=O)Cn2nnc(C(=O)NCc3cccs3)c2N)cc1
COc1ccc2c(c1)CCc1c(C(=O)Nc3c(C)nn(Cc4ccc(Cl)cc4)c3C)noc1-2
O=C(CCSCc1cnn(-c2ccccc2)c1-n1cccc1)NCc1ccc(Cl)cc1
Cc1nc2sccn2c(=O)c1S(=O)(=O)N1CCN(c2ccc(F)cc2)CC1
O=C(NC1CC(=O)N(c2ccccc2)C1)c1cc2ccccc2o1 (stereo not drawn)

Activity change, negative = inhibition, inactive:
CNC(=O)c1ccc(CSc2nc3cccnc3n2Cc2cccc(F)c2)cc1 -4.88%
CCc1ccc(-c2nc(SCC(=O)NCC3CCCO3)c(-c3ccc(F)cc3)[nH]2)cc1 (stereo not drawn) -3.27%
O=S(=O)(Nc1ccc(-c2ccc(N3CCCCCC3)nn2)cc1)c1cccc(C(F)(F)F)c1 5.16%
CCc1nn(CC(=O)N2CCN(c3cc(C)ccc3C)CC2)c(=O)c2cc3occc3n12 44.3%
Fc1ccccc1N1CCN(c2ncc3c(n2)CCN(Cc2ccc(Br)s2)C3)CC1 2.22%
COc1ccccc1CCNC(=O)C(=O)NCC(c1cccs1)S(=O)(=O)c1ccc(F)cc1 (stereo not drawn) 1.04%
CC(Oc1ccccc1)C(=O)OCc1cc(=O)n2nc(C(C)C)sc2n1 (stereo not drawn) 4.1%
Cc1ccc2nc(-c3cccc(Cl)c3)c(Nc3ccc4c(c3)OCO4)n2c1 -2.75%
Cc1ccc(C)c(NC(=O)N2CCc3cc(S(=O)(=O)N4CCC(C)CC4)ccc32)c1 -7.96%
COc1ccc(Cl)cc1NC(=O)C1CCN(S(=O)(=O)c2ccc3c(c2)CCCN3C(=O)C2CCC2)CC1 1.66%
COc1ccccc1NC(=O)Cn1cc(C(=O)c2ccncc2)c(=O)c2cc(C)ccc21 -28.7%
COc1ccccc1CNC(=O)c1ccc2c(c1)nnn2C1CCCC1 4.92%
Cc1ccc(NC(=O)N2CCN3CCCCC3C2)cc1F (stereo not drawn) 1.24%
Cc1ccsc1CN(C(=O)c1ccc(Br)cc1)C1CCS(=O)(=O)C1 (stereo not drawn) 7.76%
CCc1ccc(S(=O)(=O)c2nnn3c2nc(NCc2cccc(OC)c2)c2cc(Cl)ccc23)cc1 1.16%
O=C(Nc1ccc(Cl)cc1)c1cc2c(Cl)nc3ccccc3c2s1 -6.98%
CN(C)c1ccc(-c2noc(C3CC(=O)N(c4ccc5c(c4)OCCO5)C3)n2)cc1 (stereo not drawn) -18.5%
CCCC(CCC)C(=O)Nc1nnc2n1CCS2 -3.23%
CCc1nnc2c3ccccc3nc(Nc3ccc(F)c(Cl)c3)n12 -2.56%
O=C(Nc1ccc(S(=O)(=O)N2CCCCC2c2cccnc2)cc1)c1ccc(F)cc1 (stereo not drawn) -22.4%
CCN(Cc1ccccc1)C(=O)CN1C(=O)CSc2ccc(S(=O)(=O)N(CC)CC)cc21 11.6%
CCc1ccc(CNC(=O)c2nn(-c3ccc(OC)c(Cl)c3)c(=O)c3c2c2ccccc2n3C)cc1 6.31%
COc1ccc(-c2c3c(nc4sc(C(=O)Nc5ccccc5F)c(N)c24)CC(C)(C)CC3=O)cc1 -10.7%
COC(=O)CSc1nc2sc3c(c2c(=O)n1Cc1ccccc1)CCC(C(C)(C)C)C3 (stereo not drawn) 4.08%
COc1ccc(-c2nn(CC(=O)NCc3ccccc3)c3c2cnc2ccc(F)cc23)cc1 -1.32%
CCCCN(C)CCCNC(=O)CN1C(=O)CSc2ccc(S(=O)(=O)N3CCOCC3)cc21 7.51%
COc1cc2oc(=O)c(CC(=O)NCCc3ccccc3F)c(C)c2cc1OC 8.71%
Cc1ccc(NC(=O)C2CCCN(S(=O)(=O)c3ccc4[nH]c(=O)ccc4c3)C2)cc1C (stereo not drawn) 11%
O=C(Cn1c(=O)nc(-c2ccccc2F)c2cc(Cl)ccc21)Nc1ccccc1C(F)(F)F -4.65%
Cc1ccc(-c2nc3nc(C)cc(N4CCN(c5cccc(C)c5)C(C)C4)n3n2)cc1 (stereo not drawn) 91.6%
CCn1cc(C(=O)N2CCN(c3ccccc3)CC2)c(=O)c2cc(S(=O)(=O)N3CCCC3)ccc21 -4.51%
CCn1c(C(=O)NCc2ccc(OC)cc2)cc2sc(Cl)cc21 -13.6%
CCNC(=O)c1c(NC(=O)Cc2coc3cc(C)ccc23)sc2c1CCCC2 -24.2%
CCOc1ccc(S(=O)(=O)Nc2cccc(C)c2)c2cccnc12 9.34%
Cc1ccc(Nc2ncnc3onc(C)c23)cc1Cl -0.716%
CCc1ccccc1NC(=O)Cc1cn(C)c2ccccc12 -4.08%
O=C(Nc1c(O)c2ccccc2oc1=O)c1cccc(F)c1 -1.35%
CCOC(=O)c1[nH]c(C)c(CCC(=O)NCc2cccc(C)c2)c1C 4.27%
Cc1ccc(OCC(=O)N(Cc2ccco2)c2ccccn2)cc1 8.74%
CCCCOC(=O)c1ccc(NC(=O)Cc2coc3c(C)c(C)ccc23)cc1 -15.6%
Cc1c(Cl)cccc1NC(=O)CSc1ncc(S(=O)(=O)c2ccc(C(C)C)cc2)c(=O)[nH]1 1.02%
Cc1cc(C)cc(NC(=O)c2ccc3c(O)c(S(=O)(=O)c4ccccc4)c(=O)[nH]c3c2)c1 -7.63%
Cc1ccc(C(=O)N2CCN(c3ccc(F)cc3)CC2)cc1NC(=O)c1nsc2ccccc12 -17%
Cc1ccc(-c2nnc(Nc3ccc(Cl)c(Cl)c3)c3ccccc23)cc1S(=O)(=O)N(C)C -2.14%
COc1ccc(CCNS(=O)(=O)c2ccc(F)c(C(=O)Nc3ccc(Cl)cc3)c2)cc1OC -9.15%
Cc1cccc(CNC(=O)CN2C(=O)C3CCCCN3c3ccc(C(=O)N4CCCC4)cc32)c1 (stereo not drawn) 1.19%
Oc1c(C(c2ccccc2Cl)N2CCOCC2)sc2nc(-c3ccco3)nn12 (stereo not drawn) -4.55%
CCC(=O)N1CCc2cc(CNC(=O)Nc3cc(C)ccc3C)ccc21 -1.64%
CC(=O)N1CCN(c2nc3c(C)ccc(Cl)c3s2)CC1 0.637%
CC(=O)c1cccc(NC(=O)Cn2c(=O)oc3cc(S(=O)(=O)NC4CCCC4)ccc32)c1 -2.65%
Cc1nc(-n2nc(C)c(Cc3ccc(Cl)cc3)c2C)sc1C(=O)N1CCCCC1C (stereo not drawn) 6.26%
COc1cccc(NC(=O)CSc2nccn2Cc2ccc3c(c2)OCO3)c1 5.06%
COc1ccc(C2c3c(oc4ccc(Cl)cc4c3=O)C(=O)N2CCCN(C)C)cc1OC (stereo not drawn) 2.76%
COc1ccc(OC)c(NC(=O)C(C)n2nc(C)c3c(C)n(-c4ccccc4)nc3c2=O)c1 (stereo not drawn) 6.1%
Cc1ccc(NC(=O)CN2C(=O)CC(c3ccc(F)cc3)=Nc3ccccc32)cc1F -16.2%
COc1ccc(CN(C(=O)Nc2cccc(OC)c2)C2CCN(C(C)=O)CC2)cc1 -4.5%
O=c1[nH]c2ccc(NCc3ccc(-c4ccc(Cl)cc4)o3)cc2[nH]1 8.16%
CCOc1ccccc1Nc1nc(-c2ccc(C)cc2)c(CC(=O)O)s1 -28.3%
COc1ccc(/C=C\c2onc(C)c2S(=O)(=O)N2CCC(C(=O)Nc3cccc(C)c3C)CC2)cc1 -6.73%
CO[C@H]1C[C@@H]2CC[C@@H](C)[C@@](O)(O2)C(=O)C(=O)N2CCCC[C@@H]2C(=O)O[C@H]([C@@H](C)C[C@@H]2CC[C@H](O)[C@H](OC)C2)CC(=O)[C@H](C)C=C(C)[C@@H](O)[C@@H](OC)C(=O)[C@H](C)C[C@H](C)C=CC=CC=C1C 33.7%
CC1(C)C(N(O)C(=O)Nc2ccc(Cl)cc2)N(c2ccc(Cl)cc2)C(=O)N1CC(=O)NN=CC=Cc1ccc([N+](=O)[O-])o1 (stereo not drawn) -7.8%
Cc1oc2ncnc(N3CCOCC3)c2c1C(=O)NCc1ccccc1 -3.58%
O=C(CCn1cccn1)Nc1cccc(C(F)(F)F)c1 1.42%
COc1ccc(C(=O)NCc2ccc3c(c2)CCN3C(=O)c2cccc(C)c2)cc1OC 2.51%
Cc1ccc(C(=O)c2cn(Cc3cccc(F)c3)c3nc(C)ccc3c2=O)cc1 26.5%
Cc1ccc(NC(=O)Cn2cc(C(=O)c3cccs3)c3ccccc32)cc1C 7.99%
Cc1ccc(-n2c(=O)c3c(cnn3C)n(CC(=O)Nc3cc(C)ccc3C)c2=O)cc1 -3.13%
CCCN(Cc1cccs1)C(=O)Nc1ccc(Br)c(C)c1 5.69%
CC(C)Cn1c(-c2ccc(S(=O)(=O)N3CCCC3)cc2)csc1=Nc1ccccc1 -1.15%
Cc1cccc(NS(=O)(=O)c2ccc(Cl)c(C(=O)Nc3ccccc3C)c2)c1 0.841%
COc1ccc(CCNC(=O)CSc2nc3ccccc3nc2Cc2ccc(Cl)cc2)cc1OC 15.4%
CC=C(C)C(=O)O[C@H]1C(C)=C[C@]23C(=O)[C@@H](C=C(CO)[C@@H](O)[C@]12O)[C@H]1[C@@H](C[C@H]3C)C1(C)C 0.346%
Cc1oc(-c2ccccc2)nc1CNS(=O)(=O)c1ccc(Cl)cc1 -7.26%
